This data set concerns Post-Lyme Disease Syndrome (PLDS) patients. The following applies: Case 6; both taken for an additional 21 days.

The structures appear in SMILES notation.

For the compound `CCc1ccc(CCOc2ccc(CC3SC(=O)NC3=O)cc2)nc1` (stereo not shown) [pioglitazone], the “tolerability of CSM with pioglitazone” value is listed as “without recurrence of intensification, evidence of hypoglycemia or abnormalities in liver function tests”.

(Values after patent US20030219400A1 (priority 2002, published 2003).)
